Key:
Assay in all cases: […]
Sec5 = molecular target: T1, Sec5 (S. cerevisiae, UniProt P89102 1-971)
T1 sequence: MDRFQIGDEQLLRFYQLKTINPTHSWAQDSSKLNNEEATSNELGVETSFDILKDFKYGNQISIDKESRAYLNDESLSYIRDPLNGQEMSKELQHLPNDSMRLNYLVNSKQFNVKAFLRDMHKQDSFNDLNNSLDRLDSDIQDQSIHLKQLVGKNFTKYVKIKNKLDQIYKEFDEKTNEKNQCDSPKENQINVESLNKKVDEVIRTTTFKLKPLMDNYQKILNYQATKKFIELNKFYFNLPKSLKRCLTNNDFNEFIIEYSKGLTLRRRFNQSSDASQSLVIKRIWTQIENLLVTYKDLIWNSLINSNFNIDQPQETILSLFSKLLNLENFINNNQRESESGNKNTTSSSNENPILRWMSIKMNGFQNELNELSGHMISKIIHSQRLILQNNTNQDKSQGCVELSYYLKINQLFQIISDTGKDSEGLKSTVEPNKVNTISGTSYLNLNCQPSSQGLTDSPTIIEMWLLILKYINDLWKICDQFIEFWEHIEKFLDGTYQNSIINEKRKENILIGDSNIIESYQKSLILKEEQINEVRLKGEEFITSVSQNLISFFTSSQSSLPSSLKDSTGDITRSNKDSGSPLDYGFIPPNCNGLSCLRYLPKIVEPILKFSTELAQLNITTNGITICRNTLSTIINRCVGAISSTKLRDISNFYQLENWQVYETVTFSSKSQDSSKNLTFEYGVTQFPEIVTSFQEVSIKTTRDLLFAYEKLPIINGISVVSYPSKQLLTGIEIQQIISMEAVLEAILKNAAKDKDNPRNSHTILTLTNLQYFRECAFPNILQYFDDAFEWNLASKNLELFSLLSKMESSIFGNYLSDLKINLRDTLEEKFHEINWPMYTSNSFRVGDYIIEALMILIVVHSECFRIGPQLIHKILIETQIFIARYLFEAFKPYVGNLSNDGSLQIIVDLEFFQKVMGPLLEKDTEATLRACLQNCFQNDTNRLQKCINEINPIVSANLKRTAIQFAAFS

Sec10 = molecular target: T2, Sec10 (S. cerevisiae, UniProt Q06245 1-871)
T2 sequence: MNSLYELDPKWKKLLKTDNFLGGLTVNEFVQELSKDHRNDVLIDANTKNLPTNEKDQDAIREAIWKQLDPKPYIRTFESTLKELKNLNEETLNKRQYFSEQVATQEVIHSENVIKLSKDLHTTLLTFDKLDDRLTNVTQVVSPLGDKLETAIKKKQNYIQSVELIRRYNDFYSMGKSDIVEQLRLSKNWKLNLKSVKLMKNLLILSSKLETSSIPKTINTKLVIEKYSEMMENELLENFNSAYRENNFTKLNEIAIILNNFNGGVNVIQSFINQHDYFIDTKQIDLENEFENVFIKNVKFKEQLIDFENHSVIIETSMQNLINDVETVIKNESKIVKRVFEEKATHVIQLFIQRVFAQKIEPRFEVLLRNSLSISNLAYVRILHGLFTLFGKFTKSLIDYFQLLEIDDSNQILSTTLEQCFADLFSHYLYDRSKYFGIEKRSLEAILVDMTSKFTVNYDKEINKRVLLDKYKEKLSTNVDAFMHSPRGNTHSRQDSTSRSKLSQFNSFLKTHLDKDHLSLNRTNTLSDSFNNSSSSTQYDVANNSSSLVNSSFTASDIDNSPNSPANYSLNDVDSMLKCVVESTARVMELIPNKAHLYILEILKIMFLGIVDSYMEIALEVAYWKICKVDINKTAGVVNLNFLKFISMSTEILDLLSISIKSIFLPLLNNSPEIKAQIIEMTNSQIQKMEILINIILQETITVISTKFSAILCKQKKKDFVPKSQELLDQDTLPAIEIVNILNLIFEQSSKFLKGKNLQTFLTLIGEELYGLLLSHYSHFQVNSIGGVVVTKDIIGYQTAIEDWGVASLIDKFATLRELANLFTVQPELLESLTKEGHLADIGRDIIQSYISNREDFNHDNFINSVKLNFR

Sec15 = molecular target: T3, Sec15 (S. cerevisiae, UniProt P22224 1-910)
T3 sequence: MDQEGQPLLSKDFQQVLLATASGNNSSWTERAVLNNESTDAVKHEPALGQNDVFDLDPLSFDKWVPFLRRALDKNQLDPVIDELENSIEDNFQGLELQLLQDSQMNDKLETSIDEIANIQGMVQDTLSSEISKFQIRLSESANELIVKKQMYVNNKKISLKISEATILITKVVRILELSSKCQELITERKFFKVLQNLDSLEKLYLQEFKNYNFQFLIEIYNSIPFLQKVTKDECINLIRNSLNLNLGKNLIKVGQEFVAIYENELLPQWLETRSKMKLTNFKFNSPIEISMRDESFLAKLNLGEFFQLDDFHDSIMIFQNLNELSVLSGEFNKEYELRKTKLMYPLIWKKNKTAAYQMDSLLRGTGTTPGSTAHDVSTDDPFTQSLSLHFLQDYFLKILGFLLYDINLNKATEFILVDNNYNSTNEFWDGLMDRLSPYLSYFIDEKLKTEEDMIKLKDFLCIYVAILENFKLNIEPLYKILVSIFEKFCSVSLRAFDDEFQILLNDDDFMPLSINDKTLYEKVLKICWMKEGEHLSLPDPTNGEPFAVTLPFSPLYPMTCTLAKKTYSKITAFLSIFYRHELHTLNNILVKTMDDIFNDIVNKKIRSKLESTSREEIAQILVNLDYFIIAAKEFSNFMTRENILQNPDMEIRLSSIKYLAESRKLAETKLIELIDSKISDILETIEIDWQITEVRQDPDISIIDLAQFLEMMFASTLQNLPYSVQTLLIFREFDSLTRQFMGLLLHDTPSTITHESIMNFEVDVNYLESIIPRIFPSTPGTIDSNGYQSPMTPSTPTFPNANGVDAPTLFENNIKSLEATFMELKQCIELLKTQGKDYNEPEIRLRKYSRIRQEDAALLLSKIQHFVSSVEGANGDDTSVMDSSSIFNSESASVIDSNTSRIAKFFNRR

Exo84 = Exo84 (S. cerevisiae, UniProt P38261 1-753)
Chain of Exo84 (P38261 whole entry): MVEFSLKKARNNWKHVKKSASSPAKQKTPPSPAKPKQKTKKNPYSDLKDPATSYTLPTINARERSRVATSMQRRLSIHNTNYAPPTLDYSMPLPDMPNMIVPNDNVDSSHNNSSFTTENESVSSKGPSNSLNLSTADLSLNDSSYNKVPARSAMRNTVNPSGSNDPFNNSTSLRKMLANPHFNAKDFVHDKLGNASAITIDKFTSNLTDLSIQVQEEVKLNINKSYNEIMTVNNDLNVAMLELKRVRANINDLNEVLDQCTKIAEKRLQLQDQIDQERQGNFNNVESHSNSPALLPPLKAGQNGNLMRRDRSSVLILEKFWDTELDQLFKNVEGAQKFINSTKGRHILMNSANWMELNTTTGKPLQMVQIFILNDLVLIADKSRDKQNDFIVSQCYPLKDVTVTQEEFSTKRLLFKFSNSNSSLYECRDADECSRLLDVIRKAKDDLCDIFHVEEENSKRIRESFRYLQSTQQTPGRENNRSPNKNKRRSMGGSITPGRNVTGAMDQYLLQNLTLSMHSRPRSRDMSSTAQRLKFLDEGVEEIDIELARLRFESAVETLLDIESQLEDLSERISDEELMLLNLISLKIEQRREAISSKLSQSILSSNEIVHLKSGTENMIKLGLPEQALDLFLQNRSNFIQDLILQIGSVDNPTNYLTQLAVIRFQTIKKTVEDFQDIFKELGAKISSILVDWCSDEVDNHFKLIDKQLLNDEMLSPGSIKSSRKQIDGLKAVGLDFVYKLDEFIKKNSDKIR

Measured: binding result

B1: Exo70 (natural protein)
chain: MPAEIDIDEADVLVLSQELQKTSKLTFEINKSLKKIAATSNQSSQLFTPILARNNVLTTLQRNIESTLNSVASVKDLANEASKYEIILQKGINQVGLKQYTQVVHKLDDMLEDIQSGQANREENSEFHGILTHLEQLIKRSEAQLRVYFISILNSIKPFDPQINITKKMPFPYYEDQQLGALSWILDYFHGNSEGSIIQDILVGERSKLILKCMAFLEPFAKEISTAKNAPYEKGSSGMNSYTEALLGFIANEKSLVDDLYSQYTESKPHVLSQILSPLISAYAKLFGANLKIVRSNLENFGFFSFELVESINDVKKSLRGKELQNYNLLQDCTQEVRQVTQSLFRDAIDRIIKKANSISTIPSNNGVTEATVDTMSRLRKFSEYKNGCLGAMDNITRENWLPSNYKEKEYTLQNEALNWEDHNVLLSCFISDCIDTLAVNLERKAQIALMPNQEPDVANPNSSKNKHKQRIGFFILMNLTLVEQIVEKSELNLMLAGEGHSRLERLKKRYISYMVSDWRDLTANLMDSVFIDSSGKKSKDKEQIKEKFRKFNEGFEDLVSKTKQYKLSDPSLKVTLKSEIISLVMPMYERFYSRYKDSFKNPRKHIKYTPDELTTVLNQLVR
binds: Sec5 | Sec10 | Sec15 | Exo84
